{"source": "PubChem BioAssay AID686978", "about": "(National Center for Advancing Translational Sciences (NCATS), 2013)", "note": "Among all 420,000 compounds or so, about 64,000 (15%) were called active. The inconclusive results got no clear call from the source; some entries with a clear call stand among them for comparison. The call rests on the fitted dose curve; in most records, active means well fitted inhibition curve with a large enough effect; inconclusive means small, poorly fitted or top-dose-only effect; inactive means flat fitted curve, though single readings scatter. Potencies of inconclusive entries are left out as doubtful fits. On the % scale 0 is the no-effect control and ±100 the full control effect; potency means the concentration at half of the fitted maximal effect; tags describe the fitted curve by direction and shape.", "data": [{"experiment": "qHTS for Inhibitors of human tyrosyl-DNA phosphodiesterase 1 (TDP1): qHTS in cells in absence of CPT; further: nearly all actives have a fitted effect of over 55% in size", "settings": "DT40 Tdp1-/- hTDP1 cells, no CPT, ATP luminescence, 48 h; activity change, negative = growth inhibition: at 46.2 µM (top of the series) unless noted", "in_short": "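Stably hTDP1-transfected Tdp1-null chicken DT40 cells were treated with library compounds minus camptothecin and grown for at least 48 hr at 37 °C, after which cellular ATP was quantified by luminescence.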", "values": [{"smiles": "CCOc1ccccc1CNC(=O)C1CCN(C(=O)N2CC(C)Oc3ccc(C)cc32)CC1", "note": "(configuration not stated)", "Potency": "inconclusive [inhibitor, single point]"}, {"smiles": "Cc1nc2cnc(N3CCOCC3)nc2n(Cc2cccs2)c1=O", "Potency": "inactive"}, {"smiles": "COc1ccc(CCN2CCC(CN3C(=S)NC[C@@H]3CC(C)C)CC2)cc1OC", "Potency": "inactive"}, {"smiles": "CCCOc1ccc(C(=O)NNC(=S)NC(=O)CC)cc1", "Potency": "active: 2.59 µM"}, {"smiles": "COC(=O)c1cc(S(=O)(=O)Nc2c(C)cccc2C)cn1C", "Potency": "inactive"}, {"smiles": "O=C1c2cccc3cc(Br)cc(c23)C(=O)N1Nc1ccccc1", "Potency": "inconclusive [inhibitor, single point]"}, {"smiles": "CCCc1nc(SCC(=O)Nc2nnc(CC)s2)c2c(C)c(C)sc2n1", "Potency": "inconclusive [inhibitor, partial curve]"}, {"smiles": "C[C@@H]1CN([C@@H](C)CO)S(=O)(=O)c2ccc(Br)cc2O[C@H]1CN(C)C(=O)Nc1ccc2c(c1)OCO2", "Potency": "inconclusive [inhibitor, full curve, poor fit]"}, {"smiles": "Cc1nn(C)c2c1c(-c1ccccc1)cc(=O)n2CC(=O)NC(C)(C)C", "Potency": "inconclusive [inhibitor, single point]"}, {"smiles": "NNc1nc2c(-c3ccc(F)cc3)nnn2c2ccccc12", "Potency": "active: 11.6 µM"}, {"smiles": "CCN(CC)S(=O)(=O)c1cccc(NC(=O)COC(=O)C2=COCCO2)c1", "Potency": "inactive"}, {"smiles": "CCO[C@H]1OC(C(=O)NCc2nc3ccccc3[nH]2)=C[C@@H](C2CC2)[C@@H]1CCCO", "Potency": "active: 0.58 µM"}, {"smiles": "COc1ccc(CNC(=S)Nc2ccc(F)c(Cl)c2)cc1", "Potency": "inconclusive [inhibitor, single point]"}, {"smiles": "O=C(Cn1c2ccccc2c2nc3n(c(=O)c21)CCS3)Nc1ccccc1C(F)(F)F", "Potency": "inactive"}, {"smiles": "COc1cc2nc(SCc3ccc(F)cc3)n3nc(CCn4c(C)nc5ccccc54)nc3c2cc1OC", "Potency": "inconclusive [inhibitor, single point]"}, {"smiles": "COc1ccc(OCC(=O)N2CCc3c([nH]c4ccccc34)C2c2ccccn2)cc1", "note": "(configuration not stated)", "Potency": "inconclusive [inhibitor, single point]"}, {"smiles": "COc1ccc(C2c3ccc4ccccc4c3Oc3ncn(CCN(C)C)c(=N)c32)cc1", "note": "(configuration not stated)", "Potency": "active: 20.6 µM"}, {"smiles": "Cc1ccc(C)c(NC(=O)CCN2CCCC(C)C2)c1", "note": "(configuration not stated)", "Potency": "inactive"}, {"smiles": "c1ccc(CCNc2ccnc3cc4ccccc4cc23)cc1", "Potency": "active: 7.31 µM"}, {"smiles": "COc1ccc(CC(=O)NNC(=S)NC(=O)c2cc(OC)c(OC)c(OC)c2)cc1", "Potency": "active: 7.31 µM"}, {"smiles": "CCOc1ccccc1NC(=O)N1CCN(Cc2cc(=O)n3nc(-c4ccc(C)cc4)sc3n2)CC1", "Potency": "inactive"}, {"smiles": "COC(=O)CCc1c(C)c(C#N)c2nc3ccccc3n2c1N1CCCC1", "Potency": "inconclusive [inhibitor, single point]"}, {"smiles": "O=C(O)c1ccc2c(c1)C(=O)N(Cc1ccccc1)C2=O", "Potency": "inactive"}, {"smiles": "C[C@@H]1CC2OC(=O)[C@@]3(C)C(=O)CC[C@@](C)(C23)[C@@]1(O)CCc1ccoc1", "note": "(some centres not stated)", "Potency": "inactive"}, {"smiles": "CC(C)C[C@H]1CNC(=O)C(=O)N1C[C@H]1CCCN1C[C@H](CC(C)C)N1C[C@H](CC(C)C)N(CCc2ccccc2)C(=O)C1=O", "Potency": "inconclusive [inhibitor, single point]"}, {"smiles": "C[C@@H]1CN([C@H](C)CO)C(=O)c2cc(NC(=O)Nc3ccc(C(F)(F)F)cc3)ccc2O[C@H]1CN(C)S(=O)(=O)c1ccc(Cl)cc1", "Potency": "active: 5.8 µM"}, {"smiles": "CCCCCNCC(=O)Nc1cccc(C(=O)Nc2cccc(C(F)(F)F)c2)c1", "Potency": "inconclusive [inhibitor, single point]"}, {"smiles": "CC(C(=O)N1CCc2ccccc2C1)N(c1ccccc1)S(C)(=O)=O", "note": "(configuration not stated)", "Potency": "inconclusive [inhibitor, full curve]"}, {"smiles": "CC(C)[C@@H](C)/C=C/[C@@H](C)[C@H]1CC[C@H]2/C(=C/C=C3\\C[C@@H](O)CC[C@@H]3C)CCC[C@]12C", "Potency": "active: 16.8 µM"}, {"smiles": "O=C1C(=O)C(Cl)=C(Cl)C(Cl)=C1Cl", "Potency": "inactive"}, {"smiles": "CC(C)(C)NC(=O)C(c1ccc(F)cc1)N(Cc1cccs1)C(=O)c1ccc(CN2CCOCC2)o1", "note": "(configuration not stated)", "Potency": "inconclusive [inhibitor, single point]"}, {"smiles": "CCOc1ccc(S(=O)(=O)N(CC(=O)NCCSCc2ccccc2)c2ccccc2)cc1", "Potency": "inactive"}, {"smiles": "O=C(COC(=O)c1ccccc1Cl)Nc1cccc(S(=O)(=O)N2CCCCC2)c1", "Potency": "inconclusive [inhibitor, single point]"}, {"smiles": "CN(c1cccc(NC(=O)CN(c2cccc(Cl)c2)S(=O)(=O)c2ccc(Cl)cc2)c1)S(C)(=O)=O", "Potency": "inconclusive [inhibitor, single point]"}, {"smiles": "NNc1nc2ccc(F)cc2s1", "Potency": "inconclusive [inhibitor, single point]"}, {"smiles": "COc1cccc(Cn2cnc(-c3ccccc3OC)c2-c2cc(C)cc(C)c2)c1", "Potency": "inconclusive [inhibitor, single point]"}, {"smiles": "CCC(C)n1c(OC)nc2c1c(=O)n(C)c(=O)n2C", "note": "(configuration not stated)", "Potency": "inconclusive [inhibitor, single point]"}, {"smiles": "COc1ccccc1N1CCN(C(=O)c2cc3cc(F)ccc3[nH]2)CC1", "Potency": "active: 23.1 µM"}, {"smiles": "C=CCn1cnc2c(c1=O)c1nc3ccccc3nc1n2/N=C/c1cc(OC)c(OC)c(OC)c1", "Potency": "active: 3.26 µM"}, {"smiles": "CC(=O)Nc1cccc(OCC(=O)Nc2sccc2C(N)=O)c1", "Potency": "inconclusive [inhibitor, full curve, poor fit]"}, {"smiles": "C[N+](C)(C)CCCCCC(=O)/C=N/O", "Potency": "inactive"}, {"smiles": "CCC(C(=O)NCCc1ccc(OC)c(OC)c1)n1nc(C)c2sc3ccccc3c2c1=O", "note": "(configuration not stated)", "Potency": "active: 8.2 µM"}, {"smiles": "N=C1C(c2nc3ccccc3c(=O)[nH]2)=C(O)CN1CCO", "Potency": "inactive"}, {"smiles": "COc1ccc(CCn2c(NCc3ccco3)nc3c2c(=O)[nH]c(=O)n3C)cc1", "Potency": "inconclusive [inhibitor, single point]"}, {"smiles": "COc1ccccc1NC(=O)CSCC(=O)N1c2ccccc2CCc2ccccc21", "Potency": "inconclusive [inhibitor, single point]"}, {"smiles": "C=CCN1C(c2ccc(Br)cc2)=CS/C1=C(/C#N)c1nnc(N2CCOCC2)n1-c1ccccc1", "Potency": "active: 8.2 µM"}, {"smiles": "N#CCC(=N)N1CCN(c2ccccc2)CC1", "Potency": "inactive"}, {"smiles": "COc1ccc(NC(=O)NC23CC4(C)CC(C)(CC(C)(C4)C2)C3)cc1", "Potency": "inconclusive [inhibitor, single point]"}, {"smiles": "CCN(CC)S(=O)(=O)c1ccc2oc(C(=O)NC(C)C)c(C)c2c1", "Potency": "inconclusive [inhibitor, partial curve]"}, {"smiles": "O=c1oc2ccccc2c2c1nnn2CCO", "Potency": "inactive"}, {"smiles": "Cc1ccc(N2C(=O)C(CN(C)C)C2c2ccccc2)cc1", "note": "(configuration not stated)", "Potency": "inconclusive [inhibitor, partial curve]"}, {"smiles": "CCSC(=S)c1c(C)[nH]n(-c2ccccc2)c1=O", "Potency": "active: 13 µM"}, {"smiles": "CCC(C)[C@H](NC(=O)N1CCN(c2cccc(C(F)(F)F)c2)CC1)C(=O)OC", "note": "(some centres not stated)", "Potency": "active: 20.6 µM"}, {"smiles": "COc1ccccc1-c1ccc2nnc(SCC(=O)N3CCCC3)n2n1", "Potency": "inconclusive [inhibitor, full curve, poor fit]"}, {"smiles": "CC(C)OCCCN1CN(S(=O)(=O)c2ccc(Cl)cc2)c2nc3ccccc3nc21", "Potency": "inconclusive [inhibitor, partial curve, poor fit]"}, {"smiles": "COc1ccc(/C=C2\\CCc3c2nc2ccccc2c3C(=O)O)cc1OC", "Potency": "inactive"}, {"smiles": "CCc1ccc2c(c1)C(=O)C(=O)N2CCS(=O)(=O)c1ccccc1", "Potency": "active: 2.59 µM"}, {"smiles": "O=C(N/N=C/c1ccc(OCc2cnc(Cl)s2)cc1)c1ccncc1", "Potency": "inconclusive [inhibitor, single point]"}, {"smiles": "COc1ccc(OC)c(NC(=O)NCCCCc2ccccc2)c1", "Potency": "inconclusive [inhibitor, single point]"}, {"smiles": "CCc1ccc2occ(CC(=O)Nc3c(C(=O)c4ccc(F)cc4)oc4ccccc34)c2c1", "Potency": "inconclusive [inhibitor, single point]"}, {"smiles": "COc1ccc(C)cc1NC(=O)Cn1c(=O)oc2cc(S(=O)(=O)N3CCCCCC3)ccc21", "Potency": "active: 11.6 µM"}, {"smiles": "O=C(COC(=O)CNC(=O)c1ccc(Br)o1)Nc1ccccc1OC(F)F", "Potency": "inactive"}, {"smiles": "CCOc1ccc(CNc2nc3ccccc3n2C)cc1", "Potency": "inconclusive [inhibitor, single point]"}, {"smiles": "N#C/C(=C\\Nc1ccc(Cl)cc1)S(=O)(=O)c1ccccn1", "Potency": "inactive"}, {"smiles": "Cc1ccc(C(=O)N(CC(=O)NC2CCCC2)c2ccccc2Cl)s1", "Potency": "inconclusive [inhibitor, single point]"}, {"smiles": "Cc1cc(C)n(CC(=O)c2cccc([N+](=O)[O-])c2)n1", "activity change, negative = growth inhibition": "inconclusive: -31.4% [inhibitor]"}, {"smiles": "Cc1nccn1-c1ccc(C(F)(F)F)cc1[N+](=O)[O-]", "Potency": "inconclusive [inhibitor, single point]"}, {"smiles": "COc1ccc(CNC(=O)CN2CCN(S(=O)(=O)c3cc(Br)ccc3Br)CC2)cc1OC", "Potency": "inconclusive [inhibitor, single point]"}, {"smiles": "Cc1ccccc1Nc1nc(N)nc(COC(=O)/C=C/c2ccco2)n1", "Potency": "inconclusive [inhibitor, partial curve, poor fit]"}, {"smiles": "CCCCCCSc1nc(N)c2c3c(sc2n1)CCCC3C", "note": "(configuration not stated)", "Potency": "inconclusive [inhibitor, single point]"}, {"smiles": "CCOC(=O)N1CCN(C(=O)c2ccc3c(=O)n(-c4ccc(OC)cc4)c(=S)[nH]c3c2)CC1", "Potency": "inactive"}, {"smiles": "CCCCn1c2ccc(C)cc2c2nnc(SCCN3CCCCC3)nc21", "Potency": "active: 20.6 µM"}]}]}
